# In PubChem BioAssay AID485294 (National Center for Advancing Translational Sciences (NCATS), 2010):
# Hit rate of the full screen: of about 370,000 compounds, about 150 (0.041%) were called active. Inconclusive results, whose numbers are uncertain, are shown with a selection of clear calls. Calls come from the whole dose curve; as a rule, active = well fitted inhibition curve with a large enough effect; inconclusive = small, poorly fitted or top-dose-only effect; inactive = flat fitted curve, though single readings scatter. Potencies of inconclusive entries are left out as doubtful fits.
# Molecular target: Beta-lactamase (Escherichia coli (strain K12)) (UniProt P00811)
# Sequence of UniProt P00811 (P00811 whole entry, looked up): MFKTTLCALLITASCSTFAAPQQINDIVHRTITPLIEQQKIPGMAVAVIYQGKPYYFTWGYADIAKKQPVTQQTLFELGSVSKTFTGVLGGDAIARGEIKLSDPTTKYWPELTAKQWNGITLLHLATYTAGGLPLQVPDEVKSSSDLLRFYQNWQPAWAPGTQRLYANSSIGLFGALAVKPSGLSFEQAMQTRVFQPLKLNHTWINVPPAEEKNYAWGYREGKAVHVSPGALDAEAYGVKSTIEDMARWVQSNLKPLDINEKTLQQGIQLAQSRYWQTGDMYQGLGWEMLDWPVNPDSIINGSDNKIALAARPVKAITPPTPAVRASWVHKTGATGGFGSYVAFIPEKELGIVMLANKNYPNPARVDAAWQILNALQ
# Assay: qHTS Inhibitors of AmpC Beta-Lactamase (assay with detergent); note: nearly all actives have a fitted effect of over 25% in size;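 for activity change, negative = inhibition: 0% = no-compound wells and -100% = no-enzyme wells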
# Conditions: AmpC hydrolysis of nitrocefin, absorbance 480 nm, 0.01% Triton; activity change, negative = inhibition: at 114 µM (top of the series)
# In short: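 20 mM phosphate pH 7.0 + 0.01% (detergent screen) or 0.0001% Triton X-100; 5.3 nM AmpC reagent; cpd preinc 15 min RT; nitrocefin (800 uM stock) to start; A480 q20 s × 4 min; Activity was normalised to no-enzyme and no-compound control wells.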
# Potency is the fitted concentration of half-maximal effect; tags give direction and shape of the fitted curve.
Structure (SMILES),Potency,"activity change, negative = inhibition"
COc1ccc(CNC(=O)CSc2ncnc3ccccc23)cc1OC,"inconclusive [inhibitor, single point]",–
CC(Oc1ccccc1)c1ccnc(N)n1 (stereo not drawn),–,inactive: 7.51%
CC1(C)OC(c2ccccc2)=C/C(=C/C=C2C(=O)c3ccccc3C2=O)O1,"inconclusive [inhibitor, single point]",–
Cc1cc2ncn(C3CC(=O)N(Cc4ccc(N5CCCC5=O)cc4)C3=O)c2cc1C (stereo not drawn),"inconclusive [inhibitor, full curve]",–
COc1ccccc1NNC(=O)c1cc(C(C)(C)C)nn1Cc1ccccc1,–,inactive: -1.56%
CCCCCN1CC(=O)N2C(C)c3[nH]c4ccccc4c3C[C@H]2C1=O (stereo partly drawn),–,inactive: 0.29%
C=CCOc1ccc(C2C(C#N)=C(N)N(Nc3ccccc3)C3=C2C(=O)CCC3)cc1OC (stereo not drawn),–,inactive: 0.401%
COc1ccc(CSC2=CS(=O)(=O)c3ccccc3N2)cc1,"inconclusive [inhibitor, full curve, poor fit]",–
Cc1ccc(-c2nn(-c3cccc(F)c3)cc2CN2CCN(c3ccccn3)CC2)o1,–,inactive: -8.96%
Cc1ccc(C(=O)O/N=C/c2c(C)nn(C)c2Cl)cc1,"inconclusive [inhibitor, partial curve]",–
FC(F)Oc1ccc(/C=N/n2c(Cc3ccc(Br)cc3)n[nH]c2=S)cc1,"inconclusive [inhibitor, single point]",–
O=[N+]([O-])c1cc(-c2ccc(/C=N/n3cnnc3)o2)ccc1Cl,–,inactive: -5.19%
CCOc1ccc(N(CC(=O)Nc2ccccc2CC)S(=O)(=O)c2c(C)noc2C)cc1,–,inactive: -6.94%
CC/C(=N\NC(=O)CSCc1ccccc1Cl)c1ccc2c(c1)OCCO2,"inconclusive [inhibitor, partial curve]",–
O=C(COC(=O)c1ccccc1)NCC1CCCO1 (stereo not drawn),"inconclusive [inhibitor, single point]",–
CCOc1ccccc1NC(=O)CSc1nnc(-c2cnccn2)n1C,–,inactive: -6.26%
CCCCCCCCc1nc(=S)[nH][nH]1,"inconclusive [inhibitor, single point]",–
COc1cc(OC)c(OC)cc1/C=N/n1c(-c2n[nH]c3c2CCC3)n[nH]c1=S,–,inactive: 0.541%
CCOC(=O)C1CCN(C(=O)CSCCSCC(=O)N2CCC(C(=O)OCC)CC2)CC1,"inconclusive [inhibitor, full curve]",–
COC(=O)c1c(C(=O)OC)c(-c2ccc(C(C)(C)C)cc2)n2c1CS(=O)C2 (stereo not drawn),"inconclusive [inhibitor, full curve, poor fit]",–
Cc1cc(C)nc(NC(=O)c2cc(-c3ccc(C)s3)nc3ccccc23)c1,"inconclusive [inhibitor, partial curve]",–
c1ccc(CN2CCc3nc4ccccc4cc3C2)cc1,–,inactive: -13.1%
N#Cc1ccccc1NC(=O)CSc1nnc(-c2ccccc2O)n1-c1ccccc1,"inconclusive [inhibitor, single point]",–

Structure (SMILES),Potency,"activity change, negative = inhibition"
COc1ccc(-c2noc(CCC(=O)NCCCN3CCC(Cc4ccccc4)CC3)n2)cc1,"inconclusive [inhibitor, partial curve]",–
Cc1nnc(SCC(=O)c2ccc(C(C)C)cc2)s1,–,inactive: -6.66%
Cc1cc(C)nc(NC(=O)c2cnc3sccn3c2=O)n1,"inconclusive [inhibitor, full curve, poor fit]",–
COc1ccc(C(=O)c2c3ccc(C(F)(F)F)cc3[n+]([O-])n2CCCC(N)=O)cc1,–,inactive: -14.4%
O=C(NCCCn1ccnc1)c1cc(C2CC2)on1,"inconclusive [inhibitor, full curve, poor fit]",–
CC(C)C(O)(CC#CCN1CCCC1)c1ccccc1 (stereo not drawn),"inconclusive [inhibitor, single point]",–
CN1CCN(C(=O)c2ccc3c(c2)N(Cc2ccc(Cl)cc2)C(=O)c2ccccc2S3(=O)=O)CC1,–,inactive: -7.85%
CC1(C)CC(=O)c2cc(O)ccc2O1,"inconclusive [inhibitor, full curve, poor fit]",–
Cn1c(SCC(=O)NCCc2ccccc2)nnc1-c1ccncc1,"inconclusive [inhibitor, full curve, poor fit]",–
Cc1cc2n(n1)C(c1c[nH]c3ccccc13)Nc1ccccc1-2 (stereo not drawn),–,inactive: -10.1%
Cc1ccc(OCc2nnc(SCC(=O)c3ccccc3)n2Cc2ccco2)cc1,"inconclusive [inhibitor, full curve, poor fit]",–
CN(C)CCNc1oc(-c2cccc(Cl)c2)nc1C#N,"inconclusive [inhibitor, full curve, poor fit]",–
COC(=O)Cn1c2ccccc2c2nc(C)sc21,"inconclusive [inhibitor, single point]",–
CC(=O)Nc1ccc(S(=O)(=O)NCC(=O)OCC(=O)NC23CC4CC(CC(C4)C2)C3)cc1,"inconclusive [inhibitor, full curve, poor fit]",–
CCn1nc(C)cc1-c1nnc(Sc2ncc([N+](=O)[O-])s2)n1C,"inconclusive [inhibitor, partial curve]",–
COc1ccc(N(C(=O)c2cccc(C)c2)S(=O)(=O)c2ccc3c(c2)n(C)c(=O)n3C)cc1,–,inactive: 19.2%
O=C(CCC(=O)c1cccs1)NNC(=O)c1cccc(Cl)c1,"inconclusive [inhibitor, partial curve, poor fit]",–
O=C(CSc1cccc2cccc(Cl)c12)OCC(=O)N1CCN(C(=O)c2ccco2)CC1,"inconclusive [inhibitor, partial curve]",–
CCOCCCNC(=O)C(NC(=O)c1ccc(=O)[nH]c1)c1ccc(Cl)cc1 (stereo not drawn),"inconclusive [inhibitor, full curve, poor fit]",–
Cc1c(C(=O)N2CC(C)OC(C)C2)sc2nc(-c3ccc(F)cc3)cn12 (stereo not drawn),"inconclusive [inhibitor, full curve, poor fit]",–
COc1cccc(CNC(=O)CCC2CCCN(C(=O)c3csc(C(C)C)n3)C2)c1 (stereo not drawn),–,inactive: 7.7%
Oc1ccc(Nc2nc(-c3cccnc3)cs2)cc1,–,inactive: -13.3%
Cc1cc(OCc2nnc(SC(C)C(=O)O)n2-c2ccccc2)ccc1Cl (stereo not drawn),"inconclusive [inhibitor, single point]",–

Structure (SMILES),Potency,"activity change, negative = inhibition"
O=C(C1CCN(C2CC(=O)N(c3cccc(Cl)c3)C2=O)CC1)N1CCCC1 (stereo not drawn),"inconclusive [inhibitor, full curve, poor fit]",–
COc1ccc(CNC(=O)CSc2ncc3c(n2)-c2cc(Cl)ccc2N(C)S3(=O)=O)cc1,–,inactive: 1.62%
COc1ccc(C2CC(c3cccc(C)c3)n3ncnc3N2)cc1 (stereo not drawn),"inconclusive [inhibitor, full curve, poor fit]",–
O=C1c2ccccc2C(Nc2ccc(S(=O)(=O)N3CCCCC3)cc2)N1Cc1ccco1 (stereo not drawn),"inconclusive [inhibitor, full curve]",–
C=CCNC(=S)NNC(=O)COc1ccc(Br)cc1,"inconclusive [inhibitor, full curve, poor fit]",–
COc1ccc(NC(=O)CN(C)C(=O)CCSc2ccc(C)cc2)cc1,"inconclusive [inhibitor, full curve, poor fit]",–
O=C(NC1CCCC1)c1cccc(NC(=O)c2ccco2)c1,"inconclusive [inhibitor, single point]",–
Cc1c(C(=O)Nc2nc(-c3ccccn3)cs2)oc2ccccc12,–,inactive: 4.4%
CCCOc1ccc(C(=O)Nc2ccc(S(=O)(=O)Nc3onc(C)c3C)cc2)cc1,"inconclusive [inhibitor, single point]",–
CC(C)Oc1ccccc1C1CC(=O)Nc2cc3c(cc21)OCO3 (stereo not drawn),–,inactive: 5.91%
CCC(C)NC(=O)C1c2ccccc2C(=O)N1Cc1ccc(F)cc1 (stereo not drawn),–,inactive: -11.7%
COc1ccc(NC(=O)CN2C(=O)COc3ccccc32)cc1OC,"inconclusive [inhibitor, full curve, poor fit]",–
CCc1ccccc1NC(=O)CSc1n[nH]c(C)c1[N+](=O)[O-],"inconclusive [inhibitor, partial curve, poor fit]",–
CCc1ccc(NC(=O)CC2C(=O)N(c3ccc(OC)cc3)C(=O)N2Cc2cccs2)cc1 (stereo not drawn),"inconclusive [inhibitor, single point]",–
C#CC1(O)CC(C)NCC1(C)CCC#N (stereo not drawn),"inconclusive [inhibitor, full curve]",–
COc1cccc(N2CCN(C3CC(=O)N(c4cccc(Cl)c4)C3=O)CC2)c1 (stereo not drawn),"inconclusive [inhibitor, full curve, poor fit]",–
COc1ccc(F)cc1S(=O)(=O)N1CCC(C(N)=O)CC1,"inconclusive [inhibitor, single point]",–
COc1ccc(C(=O)Nc2cccc(-c3ccc(N4CCOCC4)nn3)c2)cc1OC,"inconclusive [inhibitor, full curve, poor fit]",–
Cc1nc2cc(OCc3cc(C(=O)NC(C)c4cn(C)nc4C)no3)ccc2s1 (stereo not drawn),"inconclusive [inhibitor, full curve]",–
O=C(Cn1cc2c(n1)CCCCC2)Nc1ccc(F)cc1F,"inconclusive [inhibitor, full curve, poor fit]",–
CCc1cccc(C)c1NC(=O)CN1C(=O)c2ccccc2S1(=O)=O,"inconclusive [inhibitor, partial curve]",–
Cc1ccc2[nH]c(=O)c(COC(=O)C3CCCO3)cc2c1 (stereo not drawn),"inconclusive [inhibitor, partial curve, poor fit]",–
